The whole screen tested about 360,000 compounds, of which about 17,000 (4.7%) were called active. The shares of active, inactive and inconclusive entries below differ from those in the screen. No stated cut-off is given here; in the data, active means activity change below about -50%; inconclusive means mostly about -30% to -49%; inactive means weaker than that.
Test: qHTS for Inhibitors of Inflammasome Signaling: IL-1-beta AlphaLISA Primary Screen
Conditions: THP-1 LPS/ATP IL-1B secretion, 16 h; at 57.5 µM, active compounds read low
How it was run: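 Secreted IL-1B measured by AlphaLISA bead assay after 16 h compound exposure of THP-1 cells; compounds (final up to 57.5 uM) added 1 h before LPS (250 ng/mL) and ATP (1.25 mM) stimulation; lower signal means less secretion.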
On the % scale 0 is the no-effect control and ±100 the full control effect.

SMILES	activity change
CCCCn1nnnc1C(c1cc2ccccc2o1)N1CCCC1 (stereo not given)	inactive: 18.3%
CC(C)(C)c1ccc(CC(=O)N2CCC2(C)C(=O)NCc2cccc3ccccc23)cc1 (stereo not given)	inconclusive: -38.7%
Cc1cc(C)n(CCc2nc(-c3ccc(F)cc3)cs2)n1	inconclusive: -48.1%
COc1ccccc1N(C)S(=O)(=O)c1ccc(C(=O)N(C)Cc2ccc(Cl)s2)cc1	inconclusive: -35.8%
COC(=O)c1ccc(NC(=O)Nc2ccc(F)cc2F)cc1	active: -53.1%
O=CC1=C(N2CCOCC2)/C(=C\c2ccccc2)CC1	inconclusive: -34.5%
Cc1ccc2c(c1)sc(-c1ccc(N(C)C)cc1)[n+]2C	inconclusive: -40%
Cc1[nH]c2ccccc2c1/C=N/Nc1ccccc1[N+](=O)[O-]	inconclusive: -38.2%
Cc1cccc(N2CCN(S(=O)(=O)c3cccs3)CC2)c1C	inconclusive: -49.9%
CC(O)[C@H]1CNC(=O)C(=O)N1CC1(c2ccccc2)CC1 (stereo not given in full)	inactive: 14.4%
S=c1[nH]nc(COc2ccc(Cl)cc2)n1-c1ccc(Cl)cc1	inactive: 3.82%
CCC(c1nnnn1C1CCCC1)N(Cc1cccs1)Cc1cc2cccc(C)c2[nH]c1=O (stereo not given)	inconclusive: -47.6%
CC(=S)/C=C1\Sc2ccccc2N1C	active: -60.6%
CC(=O)NCCC(=O)N(C)CC1CCN(CCc2cccc(C(F)(F)F)c2)CC1	inactive: -1.48%
CC1(C)CN(Cc2cccnc2)C(=O)[C@H]1CC(=O)Nc1ccc(Br)cc1	inactive: 24.4%
COc1ccccc1C(=O)Nc1ccc(C(=O)/C=C/c2cccs2)cc1	inconclusive: -42.9%
O=C(Nc1nc(-c2cc(Cl)sc2Cl)cs1)c1cccs1	inconclusive: -47.1%
COc1ccc2cnn(CCOc3ccccc3)c(=O)c2c1OC	inconclusive: -33%
O=C(Nc1ccnn1C1CCN(CCCc2ccccc2)CC1)c1ccccc1Cl	inconclusive: -35.2%
COc1ccc2oc(=N)c(C(=O)Nc3cccc(C)c3C)cc2c1	inactive: -20.2%
COC(=O)c1ccccc1NC(=O)c1cccc(NC(=O)C(C)C)c1	inconclusive: -34%
COc1ccc(Nc2ccc(S(=O)(=O)N3CCCCC3)cc2[N+](=O)[O-])cc1OC	inactive: 0%
Cc1ccc(NC(=O)C(c2ccccc2)N(C)C)cc1Cl (stereo not given)	inconclusive: -43.1%
O=C(CC12CC3CC(C1)CC(CC(=O)NC1=NCCS1)(C3)C2)NC1=NCCS1	inactive: 5.23%
O=C(COc1ccc2ccccc2c1Br)N1CCN(c2ccccn2)CC1	inconclusive: -45.8%
